About 60 (0.1%) of roughly 46,000 compounds were called active. About 3% were inconclusive and are not listed. Calls follow the shape of the dose curve; as a rule, active = well fitted inhibition curve with a large enough effect; inconclusive = small, poorly fitted or top-dose-only effect; inactive = no such curve, though single readings can be large or run the other way. The list shows a part of the results.
test: Primary qHTS assay for Inhibitors of ovarian cancer metastasis using an organotypic tumor microenvironment (TME) model.; also: nearly all actives have a fitted effect of over 65% in size;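 as to activity change, negative = inhibition: plate controls were DMSO wells for no effect and tomatine positive control wells for full effect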; conditions: SKOV3ip1-GFP adhesion/invasion on 3D omental model, fluorescence; series mostly up to 45.8 µM; activity change, negative = inhibition: at the top concentration
Method in brief: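 Primary human omental fibroblast/mesothelial 3D culture pre-formed 48 h. SKOV3ip1-GFP cells added with compounds (0.36-46 umol/L), incubated 2 h RT/16 h 37 C, fixed; GFP cells quantified at 488/509 nm.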

Activity change, negative = inhibition, inactive:
CO[C@H]1C[C@@H]2CC[C@@H](C)[C@@](O)(O2)C(=O)C(=O)N2CCCC[C@@H]2C(=O)O[C@H]([C@H](C)C[C@@H]2CC[C@H](OP(C)(C)=O)[C@H](OC)C2)CC(=O)[C@H](C)C=C(C)[C@@H](O)[C@@H](OC)C(=O)[C@H](C)C[C@H](C)C=CC=CC=C1C 12.4%
CC(C)Oc1ccc(C(=O)N2CCCCC2CCN2CCCCC2)cc1 (stereo unspecified) -6.33%
CCC(C)c1ccc(OCC(=O)Nc2ccc(-c3nc4ncccc4o3)cc2)cc1 (stereo unspecified) -4.15%
CCOC(=O)c1ccc(NC(=O)c2c(NCc3cccc(OC)c3OC)sc3c2CCC3)cc1 -3.02%
CCOC(=O)CSc1nc2cc3c(cc2c(=O)n1CCCCCC(=O)NCc1ccc(OC)cc1)OCO3 -6.91%
Cc1ccc(CNC(=O)c2ccc(CS(=O)(=O)c3ccccc3C)o2)cc1 1.71%
COc1ccccc1NC(=O)Cn1c(=O)n(-c2ccc(C)cc2)c(=O)c2c1cnn2C 11.7%
CCc1cccc(NC(=O)CCNS(=O)(=O)c2ccc3c(c2)CCN3C(C)=O)c1 39.2%
Cc1ccc(/C=C/c2onc(C)c2S(=O)(=O)N2CCC(C(=O)N(CCC(C)C)Cc3ccco3)CC2)cc1 12.5%
CC(C)(C)c1ccc(-c2nnc(-c3ccccc3NC(=O)c3ccc(F)cc3F)o2)cc1 -38.8%
O=C(Nc1ccc(Br)cc1)c1cccc(S(=O)(=O)N2CCc3ccccc32)c1 -3.76%
COc1ccc(-n2nc(C(=O)Nc3cccc(Cl)c3)c3c4ccccc4n(C)c3c2=O)cc1Cl -2.94%
O=C(CSc1oc(-c2ccco2)nc1S(=O)(=O)c1ccc(Cl)cc1)Nc1ccc(F)cc1 2.38%
CCCCCCC1CCC(C(=O)NC(C(=O)O)C(C)C)CC1 (stereo unspecified) -1.62%
COc1ccc(-c2nc3ccccc3n3c(-c4ccccc4)c4c(=O)n(C)c(=O)n(C)c4c23)cc1 -23.2%
CC(C)c1ccc(NC(=O)CSC2=Nc3ccccc3C3=NC(CC(=O)NC4CCCCC4)C(=O)N23)cc1 (stereo unspecified) -15.3%
CC1CN(C(=O)Nc2ccc(C(=O)NCCc3ccccc3Cl)cc2)c2ccccc2S1 (stereo unspecified) -0.0859%
O=C(Nc1ccc(Cl)cc1)C1CCN(S(=O)(=O)c2ccc(Br)s2)CC1 -1.83%
Cc1ccccc1C(=O)Nc1ccc(C(=O)OCc2cc(=O)n3nc(C4CC4)sc3n2)cc1 -0.475%
Cc1onc(-c2ccccc2Cl)c1C(=O)N[C@@H]1C(=O)N2[C@@H]1SC(C)(C)[C@@H]2C(=O)O -0.22%
CC(CNC(=O)CN1C(=O)COc2ccc(S(=O)(=O)N3CCCCC3)cc21)c1ccccc1 (stereo unspecified) -0.699%
CCC(C)NC(=O)c1[nH]c2cc(OC)ccc2c1Sc1ccc(C)cc1 (stereo unspecified) 3%
CCOC(=O)C1CCN(C(=O)c2cc3ccc4ccc(C)[nH]c4c3n2)CC1 -8.53%
COc1ccc(-c2cc(C(F)(F)F)n3nc(C(=O)Nc4sc5c(c4C#N)CCC(C)C5)cc3n2)cc1OC (stereo unspecified) 3.6%
CC(=O)N1c2ccccc2C(=O)C1N1CCN(c2cc(Cl)ccc2C)CC1 (stereo unspecified) -2.63%
CC(=O)c1ccc(N2CCN(S(=O)(=O)c3ccc4[nH]c5c(c4c3)CCCCC5)CC2)cc1 2.47%
O=C(CSCc1cc(=O)c2ccccc2[nH]1)Nc1cccc(C(F)(F)F)c1 11.4%
CCOC(=O)c1cccc(NC(=O)c2cnn(-c3ccccc3)c2-n2cccc2)c1 -0.153%
CCS(=O)(=O)c1ncc(N(Cc2cccc(F)c2)Cc2ccco2)c(C(=O)Nc2ccccc2Cl)n1 8.18%
COC(=O)c1scc(-c2ccc(C)cc2)c1S(=O)(=O)Nc1c(C)cc(C)cc1C 0.329%
COc1ccc(NC(=O)CN2C(=O)CC(c3ccco3)Sc3ccccc32)cc1OC (stereo unspecified) 12.2%
CCC1CN(C(=O)N2CCC(C(=O)N(C)Cc3ccccc3)CC2)c2ccccc2O1 (stereo unspecified) -2.29%
CCOc1ccccc1NC(=O)CCNS(=O)(=O)c1ccc2c(c1)CCN2C(=O)C1CC1 5.14%
Cn1ncc2c(N3CCN(c4ccccc4Cl)CC3)ncnc21 -9.88%
Cc1ccc(OCCCC(=O)Nc2sc3c(c2C(N)=O)CCCC3)cc1 7.84%
CCCCN(C)C(=O)Cn1ncc2c([nH]c3ccc(C)cc32)c1=O 3.5%
Fc1ccccc1N1CCN(c2c3c(nc4nncn24)CCC3)CC1 0.82%
CCC(Sc1nnc(-c2ccc(OC)cc2)c(-c2ccc(OC)cc2)n1)C(=O)Nc1cccc(OC)c1 (stereo unspecified) -1.59%
COc1ccc(NC(=O)CN(c2ccc(C)cc2)S(=O)(=O)c2cccs2)cc1OC -2.24%
Cc1ccc(/C=C/c2onc(C)c2S(=O)(=O)N2CCC(C(=O)NCc3ccc(N(C)C)cc3)CC2)cc1 -1.84%
CCCCS(=O)CC(O)CSc1nc(-c2ccc(OC)cc2)cc(-c2ccccc2)c1C#N (stereo unspecified) 2.08%
COc1ccccc1NC(=O)c1sc2nc(-c3cc4ccccc4oc3=O)[nH]c(=O)c2c1C 2.04%
COc1ccc(Cn2ccc3ccc(C(=O)NO)cc32)cc1 -7.36%
CN(Cc1ccccc1)C(=O)C1CCN(Cc2cc3ccccc3n2Cc2ccccc2)CC1 7.75%
C#Cc1cccc(Nc2ncnc3cc(OCCOC)c(OCCOC)cc23)c1 -21.1%
Cc1cccc(NC(=O)c2c(NC(=O)c3ccco3)sc3c2CCC(C(C)(C)C)C3)c1 (stereo unspecified) 18%
COc1ccc(C(=O)N/C(=C\c2cn(S(=O)(=O)N(C)C)c3ccccc23)C(=O)NCCCn2ccnc2)cc1 1.08%
O=C(CSc1nnc(-c2ccccc2F)o1)N1CCc2ccccc21 18.6%
O=C(Cc1ccc(Cl)cc1)NCC(c1cccs1)S(=O)(=O)c1ccc(Cl)cc1 (stereo unspecified) -3.28%
COc1cccc(CNC(=O)CN2C(=O)CCn3nc(-c4cn(C)c5ccccc45)cc32)c1OC 4.65%
O=C(Cn1nc(C(F)(F)F)c2c1CCCC2)Nc1ccc(Cl)cc1 1.23%
Cc1ccc(-n2c3c(cc(-c4nc(-c5ccc(Cl)cc5)cs4)c2=O)C(=O)CC(C)(C)C3)cc1 15.1%
COc1cc(OC)cc(C(=O)Nc2ccc(S(=O)(=O)Nc3onc(C)c3C)cc2)c1 -4.3%
Cc1ccc(NC(=O)CSc2nc(C)cc(C)c2C(=O)Nc2cccc(C)c2)cc1 -7.31%
COc1ccc(NC(=O)Cn2ncc3c([nH]c4ccccc43)c2=O)cc1Cl 11%
O=C(NCCc1ccccc1)c1ccc(CSc2nc3ccncc3n2Cc2ccccc2)cc1 4.51%
CCOC(=O)c1cccc(NC(=O)c2cc(-c3ccc(Cl)s3)nc3ccccc23)c1 17.1%
CCc1ccc(N2C(=O)CSC23C(=O)N(Cc2cccc(F)c2)c2ccccc23)cc1 (stereo unspecified) -25.5%
COc1ccc(NC(=O)CNS(=O)(=O)c2cccs2)c(OC)c1 -4.92%
Cc1ccc(NC(=O)c2cc3c(=O)n(Cc4cccnc4)ccc3nc2C)cc1F 1.15%
COc1ccc(Br)cc1CNC(=O)CN1C(=O)CSc2ccc(S(=O)(=O)N3CCOCC3)cc21 5.94%
Cc1cccc(C(=O)Nc2cccc(C(=O)OCc3cc(=O)n4ccsc4n3)c2)c1 -19.9%
NS(=O)(=O)c1cc2c(cc1Cl)NC=NS2(=O)=O -14.5%
COc1ccc(OC)c(CNC(=O)c2cccc(NC(=O)N3CCSc4ncccc43)c2)c1 -12.3%
COc1ccccc1NC(=O)C1=C(C)Nc2ncnn2C1c1ccccn1 (stereo unspecified) -0.835%
Cc1ccc(-n2nc(C)c3nc(CCC(=O)Nc4ccc(F)cc4)c(=O)n(C)c32)cc1 -13.7%
CCOc1ccccc1N(C)C(=O)NCc1noc2ccccc12 2.2%
O=C(NCCc1ccc(Cl)cc1)c1cccn1-c1nnc(N2CCCC2)s1 7.23%
CCc1ccccc1NC(=O)c1cc(S(=O)(=O)NC2CCCC2)ccc1F 2.69%
COc1ccc(C(=O)N2CCC(C(=O)Nc3ccccc3Cl)CC2)cc1 9.64%

outcome, inactive:
CN(C)c1ccc(CNC(=O)c2ccc3nc(CCc4ccccc4)oc3c2)cc1
Cc1ccc(N2C(=O)CSC23C(=O)N(CC(=O)Nc2ccccc2F)c2ccccc23)cc1C (stereo unspecified)
CCOc1ccc(NC(=O)c2oc3ccccc3c2NC(=O)c2cc3ccccc3o2)cc1
COc1ccc(N2CCN(CCCNC(=O)c3ccc4nc(N5CCCCC5)sc4c3)CC2)cc1
COc1ccc2c(c1)c1c(c(=O)n(Cc3ccccc3)c(=O)n1Cc1ccc(C)cc1)n2C
CCOc1ccc(NC(=O)CC2C(=O)N(c3cccc(C)c3)C(=O)N2Cc2ccco2)cc1 (stereo unspecified)
CCC1CN(C(=O)Nc2ccccc2C(F)(F)F)c2ccccc2S1 (stereo unspecified)
Cc1ccc2nc(CN3CCN(C(=O)Nc4cccc(C)c4C)CC3)oc2c1
Cc1ccc(CNC(=O)c2cc(S(=O)(=O)N3CCCCC3)cn2C)cc1
Cc1cc(C)cc(NC(=O)c2cccc(N3CCCS3(=O)=O)c2)c1
Cc1cccc(C(=O)Nc2nnc(SCc3cc(=O)n4cccc(C)c4n3)s2)c1
CCOC(=O)c1c(C)[nH]c(CCC(=O)Nc2cc(C)cc(C)c2)c1C
CCN(CC)CCCNC(=O)c1cn(C)c2ccc(S(=O)(=O)N3CCOCC3)cc2c1=O
COc1ccc(OC(C)C(=O)NCc2nc(-c3ccc(Cl)cc3)no2)cc1 (stereo unspecified)
CCOC(=O)c1ccc2ncc(C(=O)OCC)c(Nc3ccc(C)c(Br)c3)c2c1
CCC(C(=O)NCc1ccccc1)n1ncn2c(cc3occc32)c1=O (stereo unspecified)
O=c1c2oc3ccccc3c2n(Cc2cccc(C(F)(F)F)c2)c(=O)n1Cc1ccc2c(c1)OCO2
CC(C)Sc1ncc(Cl)c(C(=O)Nc2ccc(S(=O)(=O)N3CCCCC3C)cc2)n1 (stereo unspecified)
CCn1cc(C(=O)NC(C)c2ccccc2)c(=O)c2cc(S(=O)(=O)N3CCc4ccccc4C3)ccc21 (stereo unspecified)
COc1ccc(C(=O)c2cn(CC(=O)Nc3ccc4c(c3)OCO4)c3ccc(OC)cc3c2=O)cc1
Cc1ccc(NC(=O)Cn2cc(S(=O)(=O)N3CCCC3)c(S(=O)(=O)N3CCCC3)c2)c(C)c1
